Common to all, as to experiment: universal protein binding microarray (PBM)
What all share (conditions): transcription factors of Arabidopsis thaliana; high values mean tight binding; most listed sequences are background and not binding sites; double strand, one strand shown

In one test the target is T1, GST-ANAC092(1-176) (UniProt Q9FKA0).
T1 sequence: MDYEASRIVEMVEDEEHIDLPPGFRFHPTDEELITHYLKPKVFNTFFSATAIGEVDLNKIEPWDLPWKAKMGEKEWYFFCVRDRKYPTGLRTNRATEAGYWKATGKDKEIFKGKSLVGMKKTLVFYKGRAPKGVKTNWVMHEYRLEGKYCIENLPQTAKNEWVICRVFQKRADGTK

For the next test, the target named is GST-NTL6(1-168) (UniProt Q9SCK6).
The target in the next test is T2, GST-ANAC019 NAC domain (UniProt Q9C932).
T2 sequence: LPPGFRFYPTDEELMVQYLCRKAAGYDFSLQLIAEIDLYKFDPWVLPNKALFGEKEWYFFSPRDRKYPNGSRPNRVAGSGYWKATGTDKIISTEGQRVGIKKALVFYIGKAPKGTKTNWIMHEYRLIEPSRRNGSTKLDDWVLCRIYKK

The next test deals with T3, GST-ANAC055(1-171) (UniProt Q9LDY8).
T3 sequence: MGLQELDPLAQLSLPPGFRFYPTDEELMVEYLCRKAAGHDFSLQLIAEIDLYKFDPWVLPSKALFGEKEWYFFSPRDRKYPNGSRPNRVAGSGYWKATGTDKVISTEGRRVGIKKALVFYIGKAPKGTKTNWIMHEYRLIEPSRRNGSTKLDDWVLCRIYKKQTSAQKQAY

Another test concerns the target T4, GST-ATAF1 NAC domain (UniProt Q39013).
T4 sequence: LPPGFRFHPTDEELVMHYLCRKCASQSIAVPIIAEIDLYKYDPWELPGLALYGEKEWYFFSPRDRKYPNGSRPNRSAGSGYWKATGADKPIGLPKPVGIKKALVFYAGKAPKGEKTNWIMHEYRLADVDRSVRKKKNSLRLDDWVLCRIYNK

Test [1] deals with T5, GST-ANAC092(1-285) full length (UniProt Q9FKA0).
T5 sequence: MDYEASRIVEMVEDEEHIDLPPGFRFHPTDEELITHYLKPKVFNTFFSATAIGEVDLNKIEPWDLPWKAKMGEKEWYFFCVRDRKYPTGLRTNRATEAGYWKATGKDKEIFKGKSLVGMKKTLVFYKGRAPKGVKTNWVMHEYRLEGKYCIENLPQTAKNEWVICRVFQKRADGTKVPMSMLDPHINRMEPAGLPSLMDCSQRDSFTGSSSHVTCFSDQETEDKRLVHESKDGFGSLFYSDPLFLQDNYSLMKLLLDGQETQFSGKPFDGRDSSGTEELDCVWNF

A further test deals with T6, GST-NAP(1-166) (UniProt O49255).
T6 sequence: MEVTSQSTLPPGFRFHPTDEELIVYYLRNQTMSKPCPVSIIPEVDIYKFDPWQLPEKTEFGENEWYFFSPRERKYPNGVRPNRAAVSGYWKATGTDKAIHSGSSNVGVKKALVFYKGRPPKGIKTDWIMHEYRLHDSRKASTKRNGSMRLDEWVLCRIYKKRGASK

The target in another test is T7, GST-NST2(1-184) (UniProt Q9M274).
T7 sequence: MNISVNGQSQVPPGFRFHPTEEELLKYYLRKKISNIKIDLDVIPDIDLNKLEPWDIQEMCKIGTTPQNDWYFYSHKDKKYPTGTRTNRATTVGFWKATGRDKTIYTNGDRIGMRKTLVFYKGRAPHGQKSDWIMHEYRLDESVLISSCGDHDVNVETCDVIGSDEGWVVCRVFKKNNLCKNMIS

Another test deals with T8, GST-NTL8 NAC domain (UniProt Q9XIN7).
T8 sequence: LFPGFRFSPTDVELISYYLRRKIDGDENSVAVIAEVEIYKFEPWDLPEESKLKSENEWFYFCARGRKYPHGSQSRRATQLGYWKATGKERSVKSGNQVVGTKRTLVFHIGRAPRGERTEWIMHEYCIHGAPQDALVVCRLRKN

In a further test the target is T9, GST-SND1(1-203) (UniProt Q9LPI7).
T9 sequence: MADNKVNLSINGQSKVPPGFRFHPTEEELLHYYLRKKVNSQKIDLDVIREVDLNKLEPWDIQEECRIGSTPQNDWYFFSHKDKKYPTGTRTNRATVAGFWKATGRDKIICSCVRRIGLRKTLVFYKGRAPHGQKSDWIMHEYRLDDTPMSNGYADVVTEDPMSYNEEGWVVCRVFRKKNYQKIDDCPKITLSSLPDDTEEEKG

Another test addresses T10, GST-VND3 NAC domain (UniProt Q9FH59).
T10 sequence: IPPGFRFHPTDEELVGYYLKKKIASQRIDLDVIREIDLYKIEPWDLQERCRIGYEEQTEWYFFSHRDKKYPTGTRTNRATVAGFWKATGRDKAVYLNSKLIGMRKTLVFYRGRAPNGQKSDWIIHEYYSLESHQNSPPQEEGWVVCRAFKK

The target in a further test is T11, GST-VND7 NAC domain (UniProt Q9C8W9).
T11 sequence: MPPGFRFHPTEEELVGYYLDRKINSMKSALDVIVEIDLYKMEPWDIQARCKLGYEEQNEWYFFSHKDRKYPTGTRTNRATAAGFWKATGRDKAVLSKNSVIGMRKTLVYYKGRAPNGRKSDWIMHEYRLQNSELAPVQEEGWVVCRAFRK

Test [2] deals with T12, GST-VOZ2 (Arabidopsis thaliana) (UniProt Q9SLB9).
T12 sequence: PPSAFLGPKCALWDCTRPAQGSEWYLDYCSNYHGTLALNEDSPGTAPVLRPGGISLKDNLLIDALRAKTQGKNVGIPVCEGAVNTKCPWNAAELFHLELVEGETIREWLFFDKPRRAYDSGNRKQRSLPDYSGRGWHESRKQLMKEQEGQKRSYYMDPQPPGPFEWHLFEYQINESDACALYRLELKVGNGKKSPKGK

This is a selection; strong and weak results do not stand in their true shares. For part of these data: At the low end of the ranking, values are background and their order means little. Some of the results follow. For part of these data: The exact form of the protein is not confirmed.

UniProt Q9SCK6, sequence (Q9SCK6 1-168): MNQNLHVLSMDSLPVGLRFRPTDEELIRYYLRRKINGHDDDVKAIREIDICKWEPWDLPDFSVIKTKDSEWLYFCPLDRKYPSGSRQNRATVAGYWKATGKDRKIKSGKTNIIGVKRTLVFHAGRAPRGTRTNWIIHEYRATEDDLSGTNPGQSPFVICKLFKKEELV

Turning to CAACGACC, the binding signal was -0.0132 E-score in the test with GST-ANAC092(1-176); -0.0299 E-score in the test with GST-NTL6(1-168); 0.034 E-score with GST-ANAC019 NAC domain; -0.0128 E-score in the test with GST-ANAC055(1-171); -0.13 E-score in the test with GST-ATAF1 NAC domain; -0.0486 E-score in [1]. Besides, the binding signal in the test with GST-NAP(1-166) was -0.0508 E-score; with GST-NST2(1-184), -0.0123 E-score; with GST-NTL8 NAC domain it was -0.0472 E-score; in the test with GST-SND1(1-203) it was -0.117 E-score; with GST-VND3 NAC domain it was -0.0762 E-score; in the test with GST-VND7 NAC domain, -0.0749 E-score. The sequence further came in with a binding signal in test [2] of 0.00335 E-score.
Turning to CGACGACC, the binding signal with GST-ANAC092(1-176) is -0.135 E-score; with GST-NTL6(1-168) it was -0.172 E-score; with GST-ANAC019 NAC domain it was -0.113 E-score; in the test with GST-ANAC055(1-171) it was -0.218 E-score; in the test with GST-ATAF1 NAC domain, -0.255 E-score; in test [1], -0.174 E-score. The binding signal in the test with GST-NAP(1-166) was -0.0654 E-score; in the test with GST-NST2(1-184), -0.215 E-score; with GST-NTL8 NAC domain it was -0.0897 E-score; in the test with GST-SND1(1-203), -0.0663 E-score; with GST-VND3 NAC domain it was -0.168 E-score; with GST-VND7 NAC domain, -0.171 E-score. For the same sequence, the binding signal in test [2] was -0.0986 E-score.
Consider GGTCGTCA, for which the binding signal in the test with GST-ANAC092(1-176) is -0.101 E-score; in the test with GST-NTL6(1-168) it was -0.175 E-score; in the test with GST-ANAC019 NAC domain, 0.0436 E-score; in the test with GST-ANAC055(1-171) it was -0.112 E-score; with GST-ATAF1 NAC domain, -0.0578 E-score; in [1], -0.0659 E-score. Besides, the binding signal in the test with GST-NAP(1-166) was -0.0561 E-score; in the test with GST-NST2(1-184), -0.131 E-score; with GST-NTL8 NAC domain, -0.0311 E-score; with GST-SND1(1-203), -0.124 E-score; with GST-VND3 NAC domain, -0.0884 E-score; with GST-VND7 NAC domain, -0.0993 E-score. This sequence also registered a binding signal in test [2] of -0.0239 E-score.
Turning to AGGTTGAC, the binding signal in the test with GST-ANAC092(1-176) is -0.0083 E-score; in the test with GST-NTL6(1-168), 0.0195 E-score; with GST-ANAC019 NAC domain, -0.157 E-score; in the test with GST-ANAC055(1-171), -0.0176 E-score; with GST-ATAF1 NAC domain, 0.13 E-score; in test [1], 0.00298 E-score. For the same sequence, the binding signal in the test with GST-NAP(1-166) is -0.14 E-score; with GST-NST2(1-184), -0.0524 E-score; with GST-NTL8 NAC domain, -0.107 E-score; with GST-SND1(1-203) it was -0.0802 E-score; in the test with GST-VND3 NAC domain it was 0.0206 E-score; in the test with GST-VND7 NAC domain it was -0.101 E-score. The binding signal in test [2] was 0.0161 E-score.
Take GTCGTTGA: the binding signal in the test with GST-ANAC092(1-176) was 0.0276 E-score; in the test with GST-NTL6(1-168), 0.0069 E-score; with GST-ANAC019 NAC domain, -0.0369 E-score; with GST-ANAC055(1-171), -0.0293 E-score; in the test with GST-ATAF1 NAC domain, -0.0556 E-score; in the test with GST-NAP(1-166), 0.0448 E-score. Besides, the binding signal is -0.0726 E-score in the test with GST-NTL8 NAC domain; 0.0146 E-score with GST-SND1(1-203); -0.0502 E-score in the test with GST-VND3 NAC domain; 0.0176 E-score with GST-VND7 NAC domain; -0.0097 E-score in [2].
For the sequence GTGTCAAC, the binding signal is 0.0146 E-score with GST-ANAC092(1-176); -0.172 E-score in the test with GST-NTL6(1-168); 0.0933 E-score with GST-ANAC019 NAC domain; -0.0631 E-score in the test with GST-ANAC055(1-171); -0.0748 E-score with GST-ATAF1 NAC domain; 0.026 E-score in test [1]. Moreover, the binding signal is -0.141 E-score in the test with GST-NST2(1-184); -0.16 E-score with GST-NTL8 NAC domain; -0.0829 E-score with GST-SND1(1-203); -0.0347 E-score in the test with GST-VND3 NAC domain; -0.0505 E-score with GST-VND7 NAC domain; -0.0236 E-score in test [2].
For GGTCTTCA, the binding signal with GST-ANAC092(1-176) is -0.0457 E-score; in the test with GST-NTL6(1-168), -0.0146 E-score; with GST-ANAC019 NAC domain it was -0.0631 E-score; with GST-ANAC055(1-171), -0.0371 E-score; with GST-ATAF1 NAC domain, -0.115 E-score; in [1] it was -0.117 E-score. The binding signal with GST-NAP(1-166) was 0.0664 E-score; with GST-NST2(1-184), 0.0297 E-score; with GST-NTL8 NAC domain it was -0.0874 E-score; with GST-SND1(1-203), -0.0959 E-score; with GST-VND3 NAC domain, -0.118 E-score; in the test with GST-VND7 NAC domain it was -0.0256 E-score. This sequence also displayed a binding signal in test [2] of -0.168 E-score.
For the sequence AGTCAGAA, the binding signal with GST-ANAC092(1-176) is 0.0246 E-score; with GST-NTL6(1-168), 0.0126 E-score; with GST-ANAC019 NAC domain it was -0.0146 E-score; in the test with GST-ANAC055(1-171), -0.00859 E-score; in the test with GST-ATAF1 NAC domain it was 0.0283 E-score; with GST-NTL8 NAC domain, 0.0235 E-score. Also, the binding signal is 0.101 E-score with GST-SND1(1-203), -0.0781 E-score with GST-VND3 NAC domain, 0.0143 E-score in the test with GST-VND7 NAC domain and -0.139 E-score in test [2].
In the case of TGACCCAA, the binding signal is -0.0241 E-score with GST-ANAC092(1-176); -0.0646 E-score with GST-NTL6(1-168); -0.0468 E-score in the test with GST-ANAC019 NAC domain; 0.00716 E-score with GST-ANAC055(1-171); -0.0114 E-score in the test with GST-ATAF1 NAC domain; -0.0457 E-score in test [1]. In addition, the binding signal was -0.106 E-score with GST-NAP(1-166); 0.0267 E-score with GST-NST2(1-184); 0.0199 E-score with GST-NTL8 NAC domain; -0.0655 E-score in the test with GST-SND1(1-203); -0.0217 E-score in the test with GST-VND3 NAC domain; -0.139 E-score with GST-VND7 NAC domain. The sequence further registered a binding signal in [2] of 0.0329 E-score.
